# This is one part of the list.
# B1: SSP1 (Sclerotinia sclerotiorum), XP_001584968 (protein)
# chain: MGSSHHHHHHSSGLVPRGSHMSLLTTELACTSAPDQVLHLFFQDGQNILEARSPDGGNVWTTQDTIIAKDGDYNGSSMTCYYVDKDANFDNQPSIHLLYMNKDKQLTEKVKRMKGDNPIWEDAKVPDEVRKGPEQYSKLTSGSFNQGTGWNPNGSQWAYFSASKDGKMGIVEIRRTPKDPWHTETILEEKWGDELPGTALACVIGNGKIRVFLQHHDYSIILYENQNNTWHDRGTFIPKDKVQATTPLACTMTKDGSVHLFYVSKSNKIIHCTDGKKEEELINFFPGSKLGATSVENKITLFFRNLNPVNEVGTLENENGSWKHGTTVIPA
# Key:
# Test in all cases: glycan array binding signal (z-score within array); higher = stronger binding
# Conditions in all cases: glycan notation: IUPAC condensed, linker removed
# [1] = target: Kdn(a2-3)Gal(b1-3)GlcNAc
# In short: (§1)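 The Consortium for Functional Glycomics database supplied 3228 glycan arrays, of which those lacking an available protein sequence were dropped. The binding signal, a within-array Z-score, was averaged across arrays of the same protein sequence and across linkers. Negative scores can be read as non-binding.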
# [2] = target: Kdn(a2-3)Gal(b1-4)Glc
# In short: as §1
# [3] = target: Kdn(a2-3)Gal(b1-4)GlcNAc
# In short: as §1
# [4] = target: Kdn(a2-3)Gal(b1-4)[Fuc(a1-3)]GlcNAc
# In short: as §1
# [5] = target: Kdn(a2-6)Gal(b1-4)GlcNAc
# In short: as §1
# [6] = target: Man(a1-2)Man(a1-2)Man(a1-3)Man
# In short: as §1
# [7] = target: Man(a1-2)Man(a1-2)Man(a1-6)[Man(a1-3)]Man
# In short: as §1
# [8] = target: Man(a1-2)Man(a1-3)Man
# In short: as §1
# [9] = target: Man(a1-2)Man(a1-3)[Man(a1-2)Man(a1-6)]Man
# In short: as §1
# [10] = target: Man(a1-2)Man(a1-3)[Man(a1-2)Man(a1-6)]Man(a1-6)[Man(a1-2)Man(a1-2)Man(a1-3)]Man
# In short: as §1
# [11] = target: Man(a1-2)Man(a1-3)[Man(a1-2)Man(a1-6)]Man(a1-6)[Man(a1-2)Man(a1-2)Man(a1-3)]Man(b1-4)GlcNAc(b1-4)GlcNAc
# In short: as §1
# [12] = target: Man(a1-2)Man(a1-3)[Man(a1-6)]Man(a1-6)[Man(a1-2)Man(a1-3)]Man(b1-4)GlcNAc(b1-4)GlcNAc
# In short: as §1
# [13] = target: Man(a1-2)Man(a1-6)[Man(a1-3)]Man(a1-6)[Man(a1-2)Man(a1-2)Man(a1-3)]Man
# In short: as §1
# [14] = target: Man(a1-2)Man(a1-6)[Man(a1-3)]Man(a1-6)[Man(a1-2)Man(a1-2)Man(a1-3)]Man(b1-4)GlcNAc(b1-4)GlcNAc
# In short: as §1
# [15] = target: Man(a1-3)[Man(a1-6)]Man
# In short: as §1
# [16] = target: Man(a1-3)[Man(a1-6)]Man(a1-6)[Man(a1-2)Man(a1-3)]Man(b1-4)GlcNAc(b1-4)GlcNAc
# In short: as §1
# [17] = target: Man(a1-3)[Man(a1-6)]Man(a1-6)[Man(a1-3)]Man
# In short: as §1
# [18] = target: Man(a1-3)[Man(a1-6)]Man(a1-6)[Man(a1-3)]Man(b1-4)GlcNAc(b1-4)GlcNAc
# In short: as §1
# [19] = target: Man(a1-3)[Man(a1-6)]Man(b1-4)GlcNAc(b1-4)GlcNAc
# In short: as §1
# [20] = target: Man(a1-3)[Man(a1-6)]Man(b1-4)GlcNAc(b1-4)[Fuc(a1-6)]GlcNAc
# In short: as §1
# [21] = target: Man(a1-6)Man
# In short: as §1
# [22] = target: Man(b1-4)GlcNAc
# In short: as §1
# [23] = target: MurNAc(b1-4)GlcNAc
# In short: as §1
# [24] = target: Neu5Ac(a2-3)Gal
# In short: as §1
# [25] = target: Neu5Ac(a2-3)Gal(b1-3)GalNAc
# In short: as §1
# [26] = target: Neu5Ac(a2-3)Gal(b1-3)GalNAc(b1-3)Gal(a1-4)Gal(b1-4)Glc
# In short: as §1
# [27] = target: Neu5Ac(a2-3)Gal(b1-3)GalNAc(b1-4)[Neu5Ac(a2-3)]Gal(b1-4)Glc
# In short: as §1
# [28] = target: Neu5Ac(a2-3)Gal(b1-3)GalNAc(b1-4)[Neu5Ac(a2-8)Neu5Ac(a2-3)]Gal(b1-4)Glc
# In short: as §1
# [29] = target: Neu5Ac(a2-3)Gal(b1-3)GalNAc6S
# In short: as §1
# [30] = target: Neu5Ac(a2-3)Gal(b1-3)GlcNAc
# In short: as §1
# [31] = target: Neu5Ac(a2-3)Gal(b1-3)GlcNAc(b1-2)Man
# In short: as §1
# [32] = target: Neu5Ac(a2-3)Gal(b1-3)GlcNAc(b1-2)Man(a1-3)[GlcNAc(b1-4)][Neu5Ac(a2-3)Gal(b1-3)GlcNAc(b1-2)Man(a1-6)]Man(b1-4)GlcNAc(b1-4)GlcNAc
# In short: as §1
# [33] = target: Neu5Ac(a2-3)Gal(b1-3)GlcNAc(b1-2)Man(a1-3)[Neu5Ac(a2-3)Gal(b1-3)GlcNAc(b1-2)Man(a1-6)]Man(b1-4)GlcNAc(b1-4)GlcNAc
# In short: as §1
# [34] = target: Neu5Ac(a2-3)Gal(b1-3)GlcNAc(b1-3)Gal(b1-3)GlcNAc
# In short: as §1
# [35] = target: Neu5Ac(a2-3)Gal(b1-3)GlcNAc(b1-3)Gal(b1-4)GlcNAc
# In short: as §1
# [36] = target: Neu5Ac(a2-3)Gal(b1-3)GlcNAc(b1-3)GalNAc
# In short: as §1
# [37] = target: Neu5Ac(a2-3)Gal(b1-3)GlcNAc(b1-4)Gal(b1-4)Glc
# In short: as §1
# [38] = target: Neu5Ac(a2-3)Gal(b1-3)GlcNAc(b1-6)GalNAc
# In short: as §1
binder,measurement,setting,value
B1,glycan array binding signal (z-score),[1],-0.469
same,glycan array binding signal (z-score),[2],-0.148
same,glycan array binding signal (z-score),[3],0.177
same,glycan array binding signal (z-score),[4],-0.409
same,glycan array binding signal (z-score),[5],-0.024
same,glycan array binding signal (z-score),[6],-0.625
same,glycan array binding signal (z-score),[7],-0.199
same,glycan array binding signal (z-score),[8],0.114
same,glycan array binding signal (z-score),[9],-0.556
same,glycan array binding signal (z-score),[10],-0.323
same,glycan array binding signal (z-score),[11],0.327
same,glycan array binding signal (z-score),[12],-0.017
same,glycan array binding signal (z-score),[13],-0.279
same,glycan array binding signal (z-score),[14],-0.467
same,glycan array binding signal (z-score),[15],-0.264
same,glycan array binding signal (z-score),[16],-0.598
same,glycan array binding signal (z-score),[17],2.15
same,glycan array binding signal (z-score),[18],0.706
same,glycan array binding signal (z-score),[19],-0.468
same,glycan array binding signal (z-score),[20],-0.158
same,glycan array binding signal (z-score),[21],0.377
same,glycan array binding signal (z-score),[22],-0.027
same,glycan array binding signal (z-score),[23],-0.452
same,glycan array binding signal (z-score),[24],-0.002
same,glycan array binding signal (z-score),[25],-0.148
same,glycan array binding signal (z-score),[26],-0.151
same,glycan array binding signal (z-score),[27],-0.498
same,glycan array binding signal (z-score),[28],-0.433
same,glycan array binding signal (z-score),[29],-0.392
same,glycan array binding signal (z-score),[30],-0.043
same,glycan array binding signal (z-score),[31],-0.068
same,glycan array binding signal (z-score),[32],-0.384
same,glycan array binding signal (z-score),[33],-0.603
same,glycan array binding signal (z-score),[34],-0.583
same,glycan array binding signal (z-score),[35],-0.218
same,glycan array binding signal (z-score),[36],0.031
same,glycan array binding signal (z-score),[37],-0.411
same,glycan array binding signal (z-score),[38],0.667
